Test results as given in PubChem BioAssay (NCI).
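Five compound concentrations were applied to cells in 96-well plates for 48 hours; endpoints were derived by simple linear interpolation of the resulting dose-response curve. At the GI50, growth is halved. Definition used: TGI = concentration required for complete inhibition of growth.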

Test system: NCI-H322M lung
Experiment: NCI-60 cell line screen, 48 h

Structure (SMILES) | GI50 | TGI
C=C1C(=O)O[C@H]2[C@H]1CC/C(CNC(=O)c1cc3cc(OC)ccc3[nH]1)=C\CC[C@@]1(C)O[C@@H]21 | 11.2 µM | 23.8 µM
COCC(N=CN1CCCc2ccccc2[C@@H]1CCCCl)C(C)(C)C (some centres undefined) | – | 40.8 µM
COc1ccc2c(c1)/C(=C\c1c(C)nc3n1CCS3)C(=O)N2 | – | > 100 µM
